Assay results published in the supplement of paper PMC4967469.

Assays:
Test in all cases: Viability of human cancer cell lines after 72 h of drug (GDSC screen)
XMD11-85h = compound: COc1cc(C(=O)NC2CCN(C)CC2)ccc1Nc1ncc2c(n1)N(C1CCCC1)CCC(=O)N2C(C)C [XMD11-85h]; details: top dose 10 µM; top dose inferred
Procedure: (§1)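 Human cancer cell lines in 384-well plates, medium with 10% serum, drug for 72 h over a 256-fold dose range (nine 2-fold or five 4-fold steps up to the top dose). Adherent lines were fixed and stained with the nucleic acid dye Syto60, suspension lines read with resazurin; signal relative to control wells, capped at 0 and 100%. One two-parameter sigmoid per drug and line, fitted in a mixed model over all curves with the slope shared within a line.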

BMN-673 = compound: Cn1ncnc1[C@H]1c2n[nH]c(=O)c3cc(F)cc(c23)N[C@@H]1c1ccc(F)cc1 [BMN-673]; details: top dose 10 µM; top dose inferred
Procedure: as §1

AZD6482 = compound: Cc1cc([C@@H](C)Nc2ccccc2C(=O)O)c2nc(N3CCOCC3)cc(=O)n2c1 [AZD6482]
Procedure: as §1

MLN4924 = compound: NS(=O)(=O)OC[C@@H]1C[C@@H](n2ccc3c(N[C@H]4CCc5ccccc54)ncnc32)C[C@@H]1O [MLN4924]; details: top dose 1 µM; top dose inferred
Procedure: as §1

[1] = top dose 5 µM, screen: GDSC drug entry 1066, top dose inferred
[2] = top dose 5.12 µM, screen: GDSC drug entry 156

In the case of EC-GI-10 (oesophagus, adherent), the AUC (XMD11-85h) is reported as 0.97, the IC50 (XMD11-85h) is reported as over 10 µM and the AUC (BMN-673) is reported as 0.701. It also gave an IC50 (BMN-673) of 2.29 µM, an AUC (AZD6482; [1]) of 0.892 and an IC50 (AZD6482; [1]) of over 5 µM. The AUC (AZD6482; [2]) was 0.989, the IC50 (AZD6482; [2]) was over 5.12 µM and the AUC (MLN4924) was 0.56. It also gave an IC50 (MLN4924) of 0.0908 µM.
SK-MEL-1 (melanoma, suspension) was tested, and the AUC (XMD11-85h) was 0.993, the IC50 (XMD11-85h) was over 10 µM and the AUC (BMN-673) was 0.993. It also gave an IC50 (BMN-673) of over 10 µM, an AUC (AZD6482; [1]) of 0.99 and an IC50 (AZD6482; [1]) of over 5 µM. For the same cell line, the AUC (AZD6482; [2]) was 0.991, the IC50 (AZD6482; [2]) was over 5.12 µM and the AUC (MLN4924) was 0.993. The IC50 (MLN4924) was over 1 µM.
In the case of SK-GT-2 (stomach, adherent), the AUC (XMD11-85h) is reported as 0.967, the IC50 (XMD11-85h) is reported as over 10 µM and the AUC (BMN-673) is reported as 0.862. The IC50 (BMN-673) was 9.3 µM, the AUC (AZD6482; [1]) was 0.949 and the IC50 (AZD6482; [1]) was over 5 µM. The AUC (MLN4924) was 0.794 and the IC50 (MLN4924) was 0.488 µM.
For HCC2157 (breast, suspension), the AUC (XMD11-85h) was 0.871, the IC50 (XMD11-85h) was over 10 µM and the AUC (BMN-673) was 0.986. It also gave an IC50 (BMN-673) of over 10 µM, an AUC (AZD6482; [1]) of 0.625 and an IC50 (AZD6482; [1]) of 0.702 µM. For the same cell line, the AUC (AZD6482; [2]) was 0.812, the IC50 (AZD6482; [2]) was 2.91 µM and the AUC (MLN4924) was 0.983. It also gave an IC50 (MLN4924) of over 1 µM.
Cell Line COLO-800 (melanoma, adherent) has an AUC (XMD11-85h) of 0.906, an IC50 (XMD11-85h) of over 10 µM and an AUC (BMN-673) of 0.04. For the same cell line, the IC50 (BMN-673) was under 0.0391 µM, the AUC (AZD6482; [1]) was 0.969 and the IC50 (AZD6482; [1]) was over 5 µM. For the same cell line, the AUC (MLN4924) was 0.512 and the IC50 (MLN4924) was 0.0671 µM.
“PL-21 (acute myeloid leukaemia, suspension)” was tested, and the AUC (XMD11-85h) was 0.919, the IC50 (XMD11-85h) was over 10 µM and the AUC (BMN-673) was 0.98. It also gave an IC50 (BMN-673) of over 10 µM, an AUC (AZD6482; [2]) of 0.821 and an IC50 (AZD6482; [2]) of 3.63 µM. The AUC (MLN4924) was 0.882 and the IC50 (MLN4924) was over 1 µM.
“NCI-H1623 (lung adenocarcinoma, adherent)” gave an AUC (XMD11-85h) of 0.983, an IC50 (XMD11-85h) of over 10 µM and an AUC (BMN-673) of 0.439. For the same cell line, the IC50 (BMN-673) was 0.409 µM, the AUC (AZD6482; [1]) was 0.8 and the IC50 (AZD6482; [1]) was 3.08 µM. It also gave an AUC (AZD6482; [2]) of 0.927, an IC50 (AZD6482; [2]) of over 5.12 µM and an AUC (MLN4924) of 0.758. The IC50 (MLN4924) was 0.419 µM.
Cell Line BT-20 (breast, adherent) has an AUC (XMD11-85h) of 0.982, an IC50 (XMD11-85h) of over 10 µM and an AUC (BMN-673) of 0.902. The IC50 (BMN-673) was over 10 µM, the AUC (AZD6482; [1]) was 0.736 and the IC50 (AZD6482; [1]) was 1.77 µM. For the same cell line, the AUC (AZD6482; [2]) was 0.589, the IC50 (AZD6482; [2]) was 0.597 µM and the AUC (MLN4924) was 0.967. The IC50 (MLN4924) was over 1 µM.
Work on JHU-022 (head and neck, adherent) yielded an AUC (XMD11-85h) of 0.933, an IC50 (XMD11-85h) of over 10 µM and an AUC (BMN-673) of 0.837. For the same cell line, the IC50 (BMN-673) was 9.37 µM, the AUC (AZD6482; [1]) was 0.914 and the IC50 (AZD6482; [1]) was over 5 µM. It also gave an AUC (AZD6482; [2]) of 0.89, an IC50 (AZD6482; [2]) of over 5.12 µM and an AUC (MLN4924) of 0.692. It also gave an IC50 (MLN4924) of 0.251 µM.
CCK-81 (large intestine, adherent) showed an AUC (XMD11-85h) of 0.934, an IC50 (XMD11-85h) of over 10 µM and an AUC (BMN-673) of 0.927. For the same cell line, the IC50 (BMN-673) was over 10 µM, the AUC (AZD6482; [1]) was 0.961 and the IC50 (AZD6482; [1]) was over 5 µM. For the same cell line, the AUC (AZD6482; [2]) was 0.95, the IC50 (AZD6482; [2]) was over 5.12 µM and the AUC (MLN4924) was 0.989. For the same cell line, the IC50 (MLN4924) was over 1 µM.
SW684 (fibrosarcoma, adherent) showed an AUC (XMD11-85h) of 0.974, an IC50 (XMD11-85h) of over 10 µM and an AUC (BMN-673) of 0.931. The IC50 (BMN-673) was over 10 µM, the AUC (AZD6482; [1]) was 0.87 and the IC50 (AZD6482; [1]) was over 5 µM. The AUC (AZD6482; [2]) was 0.827, the IC50 (AZD6482; [2]) was over 5.12 µM and the AUC (MLN4924) was 0.966. It also gave an IC50 (MLN4924) of over 1 µM.

Lines with a small IC50 respond at low doses; a fit beyond the top or the lowest dose is shown as a bound at that dose. AUC, from the same fit, is the share of area under the viability curve across the 256-fold dose range; it is 1 without any effect and falls as sensitivity rises. A top dose marked as inferred was derived from the fitted curves, not read from the paper. For some assays here: Drugs with an entry number were screened twice under separate entries, and the two screens often disagree.
